According to PMC12040169 (PLOS Biology, 2025):
The other results are listed elsewhere or left out.

These molecules were tested on T1, C. trachomatis L2/434/Bu expressing GFP (CTL2-GFP). Details: total inclusion area; 28.5 h, 10 µM; inhibitor.
T1 construct: L2/434/Bu GFP intracellular growth in HeLa cells
Design: species or system HeLa; C. trachomatis total inclusion area by high-content imaging, normalised to DMSO
Procedure, shortened: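 High-content imaging followed the bulk GFP/resorufin measurement: fixed, Hoechst-stained cells were scored for GFP inclusions and host nuclei per well. Total inclusion area and count served as growth proxies, nuclei number as the viability proxy. MIC calculation matched the bulk assay.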

Row | Structure (SMILES) | % of control remaining
1 | O=C(c1ccco1)N1Cc2nc[nH]c2C[C@H]1c1nc(-c2ccc3ccccc3c2)no1 [CBK288965] | 99.5722
2 | COc1ccc(C2(C(F)(F)F)NC(=O)N3CCN=C3S2)cc1 (stereo not drawn) [CBK019170] | 107.337
3 | COc1ccc(-c2nnc(SCc3csc(Nc4ccccc4)n3)n2-c2ccccc2)cc1 [CBK265205] | 110.593
4 | c1ccc2c(c1)OCC(COc1nccc(N3CCCNCC3)n1)O2 (stereo not drawn) [CBK085471] | 86.7815
5 | FC(F)(F)c1ccnc(OCCc2c[nH]c3ccccc23)n1 [CBK116625] | 75.8243
6 | CCn1cc(-c2cncn2CCN(C)C2CCCC2)cn1 [CBK281551] | 91.4927
7 | CCOC(=O)CN1CCN(S(=O)(=O)c2ccc3ccccc3c2)CC1 [CBK043738] | 82.3179
8 | O=C1Nc2ccc(-c3ccsc3)cc2C1(O)O [CBK000421] | 65.8609
9 | CCNC(=O)N1C(CC(=O)Nc2cccc(OC)c2)C(=O)NC2CCCCC21 (stereo not drawn) [CBK269848] | 63.6448
10 | CNC(=O)C1(C)CCCN1C(=O)c1cc2cc(C)ccc2n1C (stereo not drawn) [CBK281375] | 108.031
11 | C=C(C)Cn1c(SCC(C)C)nnc1-c1ccc(F)cc1 [CBK200085] | 108.091
12 | O=C(c1cc2c(s1)CCC2)N1CCC[C@H]1[C@H](O)c1nccs1 [CBK284287] | 58.6891
13 | COc1ccc(S(=O)(=O)N(C)CC(=O)Nc2cccc(C(F)(F)F)c2)cc1OC [CBK266242] | 138.066
14 | COc1ccccc1-c1nnc(SCC(=O)O)n1-c1ccccc1 [CBK116149] | 92.8654
15 | CCN1CCN(C(=O)CN(Cc2ccccc2)S(=O)(=O)c2c(C)cc(C)cc2C)CC1 [CBK266670] | 89.5918
16 | CSCCN1CCC(Oc2nccnc2OC2CCCCC2)CC1 [CBK082873T] | 87.3955
17 | CCOc1cc(OCC)cc(C(=O)Nc2ccc(-c3nc4ncccc4o3)cc2)c1 [CBK263440] | 101.501
18 | O=S(=O)(c1cccc2nonc12)N1CCCCCC1 [CBK265627] | 118.375
19 | N#CCCCCn1cc(NC(=O)NCCc2cccs2)cn1 [CBK044855] | 102.668
20 | CCOC(=O)c1cnn2c(O)cc(CN(Cc3ccco3)C3CC3)nc12 [CBK305613] | 78.2859
21 | CCN(CC)C(=O)Cn1nc(C)n2c(cc3ccsc32)c1=O [CBK284104] | 81.8035
22 | Cc1cc2oc(=O)cc(COC(=O)c3ccc(-n4cccn4)cc3)c2cc1Cl [CBK296626] | 84.3044
23 | CCCCNCC(=O)Nc1sc2c(c1C(=O)O)CCCC2 [CBK287207] | 105.474
24 | Cc1cc(CNCc2c(C(C)C)nn(C)c2N(C)C)no1 [CBK304855] | 50.0929
25 | Cc1cc(C)n(CCCNC(=O)Cn2cnc3sc(C)c(C)c3c2=O)n1 [CBK305852] | 4.393
26 | CN1CC(CO)Oc2ccccc21 (stereo not drawn) [CBK003872C] | 102.888

Row | Structure (SMILES) | % of control remaining
27 | CCOc1cc(C(=S)N2CCN(C)CC2)ccc1OCC(=O)N1CCOCC1 [CBK266856] | 69.7561
28 | CCc1ccc(OCC(=O)O/N=C(\N)c2ccncc2)c(Br)c1 [CBK265994] | 81.9178
29 | C=CCn1c2cc(C)sc2c2cnn(CC(=O)OCC)c(=O)c21 [CBK284165] | 72.6803
30 | O=C(Nc1ccc(O)c(-c2nc3ccccc3o2)c1)c1ccc(-c2ccc([N+](=O)[O-])cc2)o1 [CBK263439] | 86.8246
31 | NS(=O)(=O)c1ccc(NC(=O)CN2CCC(Cc3ccccc3)CC2)cc1 [CBK266161] | 120.265
32 | NS(=O)(=O)c1ccc(NC(=O)CSc2nc3sc4c(c3c(=O)n2-c2ccc(Cl)cc2)CCCC4)cc1 [CBK267577] | 100.092
33 | CCOC(=O)C1(C2CCCCC2)CCN(C(=O)CCSC)CC1 [CBK136929] | 97.6349
34 | O=C(NCC(CO)Cc1ccccn1)c1ccc2cc[nH]c2c1 (stereo not drawn) [CBK305222] | 47.6714
35 | CC1=C(C(=O)OCc2ccccc2)C2(C(=O)Nc3ccccc32)C(C(=O)OCc2ccccc2)=C(N)O1 (stereo not drawn) [CBK262576] | 100.595
36 | CCCn1nccc1S(=O)(=O)NCCN1CCCCC1CO (stereo not drawn) [CBK307259] | 89.353
37 | O=C(O)Cn1c2ccccc2c2cc([N+](=O)[O-])ccc21 [CBK261732] | 91.7114
38 | NS(=O)(=O)c1cccc(NC(=O)c2cccnc2)c1 [CBK024417] | 83.3389
39 | COc1cc(-c2ccc3ccc(=O)[nH]c3n2)cc(OC)c1OC [CBK073721] | 145.688
40 | COc1ccc(C(=O)Nc2ccccc2Nc2cc(-c3ccccc3)nn2-c2ccccc2)cc1 [CBK261296] | 70.912
41 | CC1=CC(C)C(CN(CCC[N+](C)(C)C)C(=O)Nc2ccccc2)C(C)C1 (stereo not drawn) [CBK262507I] | 110.161
42 | O=C(NC1CCCC1)c1ccccc1Cl [CBK001992] | 99.3881
43 | C[C@H](NC(=O)N1CCN(C(=O)CCc2c[nH]c3ccccc23)CC1)C(=O)O [CBK286774] | 82.2804
44 | CCN(CC)CCn1c(=N)n(CC(=O)OC)c2ccccc21 [CBK262517B] | 57.238
45 | N#Cc1nccnc1NCc1ccccc1CN1CCCC1CO (stereo not drawn) [CBK306418] | 74.1137
46 | NS(=O)(=O)c1ccc(CNC(=O)c2ccccc2Nc2cccc(C(F)(F)F)c2)cc1 [CBK149579] | 106.128
47 | CCOC(=O)N1CCC(NS(=O)(=O)c2cn(C)c(=O)n(C)c2=O)CC1 [CBK305699] | 65.8293
48 | O=C(C1CCC1)N1CCC(n2nc(C3CC3)ccc2=O)CC1 [CBK284239] | 61.9673
49 | CCCC/C=C/c1cnc(N)c(-c2ccc(N3CCOCC3)cc2)n1 [CBK063891] | 81.6644
50 | CC(C)(C)c1ccc(C(=O)NNC(=O)C(=O)Nc2ccccc2)cc1 [CBK261701] | 104.591
51 | CCn1cc(Br)c(C(=O)Nc2nccs2)n1 [CBK265890] | 111.976
